The shares of active, inactive and inconclusive entries below differ from those in the screen. For part of these data: Potencies beside an inconclusive call are fits to weak or partial responses and may not hold up. Calls of active or inactive are those of the source. Unless noted, calls follow the shape of the dose curve; as a rule, active = well fitted curve in the direction sought with a large enough effect in the repeat runs; inconclusive = weak or mixed curves; inactive = no such curve, though single readings can be large; an effect the other way counts as inactive or inconclusive.
How the values were obtained:
[1] = qHTS assay to identify small molecule agonists of the estrogen receptor beta (ER-beta) signaling pathway - cell viability counter screen (AID 1259380); also: % is scaled to controls: 0 for no effect and ±100 for the full control effect; nearly all actives have a fitted effect of over 30% in size
How it was run: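 Cell viability counter screen: CellTiter-Glo luminescence (30 min, room temperature) measured in the same wells as the beta-lactamase readout, after 16 hr compound exposure at 37C of ER-beta-bla HEK293T cells in 2% charcoal-stripped FBS medium.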

[2] = Caspase-3/7 induction in HepG2 cells by small molecules, qHTS cell viability counter screen (AID 1346981); also: % is scaled to controls: 0 for no effect and ±100 for the full control effect; nearly all actives have a fitted effect of over 30% in size
How it was run: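 CellTiter-Fluor fluorescence measured viability in the same wells used for Caspase-Glo 3/7. HepG2 (wild type) at 2,000 cells/well were pre-incubated 5 hr, dosed, and given reagent at 16 hr, with 1 hr further at 37C.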

[3] = molecular target: Cytochrome P450 2C9 (Homo sapiens) (UniProt P11712); assay: Cytochrome P450 Family 2 Subfamily C Member 9 (CYP2C9) small molecule antagonists: luciferase reporter qHTS assay (AID 1671198); also: % is scaled to controls: 0 for no effect and ±100 for the full control effect; nearly all actives have a fitted effect of over 50% in size
How it was run: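 P450-Glo proluciferin substrate with CYP2C9 enzyme; 10 min RT preincubation, then NADPH regeneration 1 h at 37C; luciferin detection reagent 20 min RT, luminescence in relative luminescence units.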

[4] = molecular target: Cytochrome P450 1A2 (Homo sapiens) (UniProt P05177); assay: Cytochrome P450 Family 1 Subfamily A Member 2 (CYP1A2) small molecule antagonists: luciferase reporter qHTS assay (AID 1671199); also: % is scaled to controls: 0 for no effect and ±100 for the full control effect; nearly all actives have a fitted effect of over 50% in size
How it was run: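 Luminescence from luciferin formed by CYP1A2 from a proluciferin substrate, read 20 min after detection reagent. Compound was pre-incubated 10 min with enzyme-substrate, and reaction started with NADPH regeneration solution for 1 h at room temperature; furafylline control.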

[5] = molecular target: Cytochrome P450 3A4 (Homo sapiens) (UniProt P08684); assay: Cytochrome P450 Family 3 Subfamily A Member 4 (CYP3A4) small molecule antagonists: luciferase reporter qHTS assay (AID 1671201); also: potency is read from the fitted curve at half-maximal effect; nearly all actives have a fitted effect of over 50% in size
How it was run: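 Relative luminescence units after 20 min with luciferin detection reagent served as read-out. Beforehand, CYP3A4 turned over a proluciferin substrate for 1 h at room temperature with NADPH regeneration, following 10 min compound preincubation.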

[6] = qHTS assay for small molecule agonists of the p53 signaling pathway (AID 651631; calls by dose curve; also: potency is read from the fitted curve at half-maximal effect; nearly all actives have a fitted effect of over 15% in size); settings: HCT-116 p53RE-bla reporter, beta-lactamase FRET ratio, 16 h; activation: at 73.3 µM (top of the series) unless noted
How it was run: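 Testing took place in human colorectal HCT-116 cells with stable p53RE-driven beta-lactamase. After 16 h of compound exposure at 37 °C, a FRET substrate was added and fluorescence recorded 2 h later.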

[7] = qHTS assay for small molecule disruptors of the mitochondrial membrane potential - cell viability (AID 720634; calls by dose curve; also: potency is read from the fitted curve at half-maximal effect; nearly all actives have a fitted effect of over 20% in size)
How it was run: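 Cytotoxicity was quantified from ATP content by CellTiter-Glo luminescence in the same wells as the MMP dye read-out. HepG2 (2,000 cells/well) were plated overnight and exposed to compounds for 1 hr at 37 C.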

[8] = qHTS assay for small molecule disruptors of the mitochondrial membrane potential (AID 720635); settings: HepG2 mitochondrial membrane potential, Mito-MPS dye ratio; ratio activity, negative = MMP loss: at 83.2 µM (top of the series) unless noted; also: potency is read from the fitted curve at half-maximal effect; as to ratio activity, negative = MMP loss: % is scaled to controls: 0 for no effect and ±100 for the full control effect
How it was run: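 HepG2 cells exposed to compound 1 hr at 37C, then Mito-MPS dye 30 min. Ratio read of aggregate (540/590 nm) versus monomer (490/535 nm) fluorescence.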

[9] = molecular target: Glucocorticoid receptor (Homo sapiens) (UniProt P04150); assay: qHTS assay to identify small molecule agonists of the glucocorticoid receptor (GR) signaling pathway (AID 720691; active = well fitted activation curve with a large enough effect in the signal ratio in the repeat runs, not every such curve was filed as active; inconclusive = weak or mixed curves, or effect the other way; inactive = no such curve, though single readings can be large or run the other way; the % refers to the signal ratio; also: potency is read from the fitted curve at half-maximal effect); settings: GR-bla HeLa, beta-lactamase reporter ratio, 18 h; activation: at 62.4 µM (top of the series) unless noted
How it was run: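 Agonist-mode qHTS in HeLa cells stably expressing a glucocorticoid-response-element beta-lactamase reporter. Fluorescence intensity read with FRET substrate (2 h, room temperature) after 18 h compound treatment at 37 C.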

[10] = molecular target: Glucocorticoid receptor (Homo sapiens) (UniProt P04150); assay: qHTS assay to identify small molecule antagonists of the glucocorticoid receptor (GR) signaling pathway (AID 720692; active = well fitted inhibition curve with a large enough effect in the signal ratio in the repeat runs, not every such curve was filed as active; inconclusive = weak or mixed curves, or effect the other way; inactive = no such curve, though single readings can be large or run the other way; the % refers to the signal ratio; also: potency is read from the fitted curve at half-maximal effect); settings: GR-bla HeLa, beta-lactamase FRET ratio, dexamethasone-stimulated, 18 h; activity change, negative = inhibition: at 58.5 µM (top of the series) unless noted
How it was run: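 Inhibition of dexamethasone-driven (5 nM final) beta-lactamase expression was measured in GRE-reporter HeLa cells over 18 h at 37C. Fluorescence was read after 2 h with the B/G FRET substrate at room temperature.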

[11] = qHTS assay to identify small molecule antagonists of the glucocorticoid receptor (GR) signaling pathway - cell viability counter screen (AID 720693); settings: GR-bla HeLa viability, CellTiter-Glo luminescence, 18 h, with 5 nM dexamethasone present; viability change, negative = cytotoxic: at 58.5 µM (top of the series); also: % is scaled to controls: 0 for no effect and ±100 for the full control effect; nearly all actives have a fitted effect of over 55% in size
[12] = qHTS assay to identify small molecule antagonists of the thyroid receptor (TR) signaling pathway (AID 743065); also: potency is read from the fitted curve at half-maximal effect; nearly all actives have a fitted effect of over 55% in size
How it was run: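 GH3.TRE-Luc rat pituitary cells (two TREs driving luciferase) were dosed with compound, then stimulated with 1 nM T3 (final) for 23.5 h at 37 C. ONE-Glo luminescence was the read-out, with CellTiter-Fluor fluorescence as the cytotoxicity counter-screen.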

[13] = qHTS assay to identify aromatase inhibitors - cell viability counter screen (AID 743084); settings: MCF-7 aro ERE viability, CellTiter-Fluor, 24 h; activity change, negative = cytotoxicity: at 70.3 µM (top of the series) unless noted;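 also: cells stimulated with testosterone during compound exposure; nearly all actives have a fitted effect of over 55% in size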; also: potency is read from the fitted curve at half-maximal effect; as to activity change, negative = cytotoxicity: % is scaled to controls: 0 for no effect and ±100 for the full control effect
[14] = molecular target: Aryl hydrocarbon receptor (Homo sapiens) (UniProt P35869); assay: qHTS assay to identify small molecule that activate the aryl hydrocarbon receptor (AhR) signaling pathway (AID 743085); also: potency is read from the fitted curve at half-maximal effect; nearly all actives have a fitted effect of over 15% in size
How it was run: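 A multiplexed format paired cell viability (CellTiter-Fluor fluorescence) with AhR-dependent luciferase output (ONE-Glo luminescence) in the same wells of HepG2 DRE-luc cells after 24 h compound exposure at 37C.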

[15] = molecular target: Peroxisome proliferator-activated receptor gamma (Homo sapiens) (UniProt P37231); assay: qHTS assay to identify small molecule agonists of the peroxisome proliferator-activated receptor gamma (PPARg) signaling pathway (AID 743094; active = well fitted activation curve with a large enough effect in the signal ratio in the repeat runs, not every such curve was filed as active; inconclusive = weak or mixed curves, or effect the other way; inactive = no such curve, though single readings can be large or run the other way; the % refers to the signal ratio; also: % is scaled to controls: 0 for no effect and ±100 for the full control effect); settings: HEK293H PPARg-UAS-bla, beta-lactamase FRET ratio, 17 h; activation: at 57 µM (top of the series) unless noted
How it was run: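 Agonist activity was taken from a beta-lactamase reporter (FRET substrate, 1 h at room temperature) in HEK293H cells carrying a PPARg UAS-bla construct. Compounds in DMSO were incubated 17 h at 37C after a 5 h cell pre-incubation.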

[16] = molecular target: Nuclear receptor subfamily 1 group I member 2 (Rattus norvegicus) (UniProt Q9R1A7); assay: Rat pregnane X receptor (rPXR) activation by small molecules, qHTS assay (AID 1346983); settings: rPXR luciferase reporter cells, One-Glo luminescence, 24 h; max activation: active compounds read high; also: potency is read from the fitted curve at half-maximal effect; nearly all actives have a fitted effect of over 20% in size
How it was run: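 Cell-based rPXR activation assay: rPXR cells, 2,000 per well, rested 5hr at 37 C, then exposed to compounds in DMSO for 24 hr at 37 C. Luciferase activity read by One-Glo luminescence after 30 min at room temperature.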

[17] = molecular target: Nuclear receptor subfamily 1 group I member 2 (Homo sapiens) (UniProt O75469); assay: CYP3A4 induction through human pregnane X receptor (PXR) by small molecules, qHTS assay (AID 1346984); settings: DPX-2 HepG2 PXR, CYP3A4-luciferin luminescence, 24 h; activation: at 46.1 µM (top of the series) unless noted; also: potency is read from the fitted curve at half-maximal effect; nearly all actives have a fitted effect of over 40% in size
How it was run: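 Read-out is luminescence after One-Glo addition, following a 3 hr, 37C incubation with Luciferin-IPA CYP3A4 substrate (3uM final). Before that, compounds were on DPX-2 cells (HepG2 co-transfected with PXR element plus CYP3A4-promoter luciferase) for 24 hr at 37C.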

[18] = molecular target: Nuclear receptor subfamily 1 group I member 2 (Homo sapiens) (UniProt O75469); assay: Human pregnane X receptor (PXR) activation by small molecules, qHTS assay (AID 1346985); also: potency is read from the fitted curve at half-maximal effect; nearly all actives have a fitted effect of over 40% in size
How it was run: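 DPX-2 cells (HepG2 co-transfected with a PXR response element and a CYP3A4-promoter luciferase construct) were seeded at 2,000 per well, rested 5 hr at 37C, then exposed to DMSO-dissolved compounds for 24 hr. Activation was read as luciferase luminescence.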

[19] = qHTS assay to identify small molecule antagonists of the thyroid receptor (TR) signaling pathway - cell viability counter screen (AID 743064); settings: GH3.TRE-Luc viability, CellTiter-Fluor, 24 h; activity change, negative = cytotoxic: at 70.3 µM (top of the series) unless noted; also: % is scaled to controls: 0 for no effect and ±100 for the full control effect; nearly all actives have a fitted effect of over 50% in size
How it was run: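 Viability of T3-stimulated (1 nM final) GH3.TRE-Luc cells is measured by CellTiter-Fluor fluorescence after 23.5 h compound exposure at 37 °C plus 30 min reagent incubation.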

[20] = molecular target: Estrogen receptor (Homo sapiens) (UniProt P03372); assay: qHTS assay to identify small molecule agonists of the estrogen receptor alpha (ER-alpha) signaling pathway using the BG1 cell line (AID 743079); settings: BG1Luc4E2 cells, ERE-luciferase agonist, 22 h; activation: at 70.3 µM (top of the series) unless noted; also: % is scaled to controls: 0 for no effect and ±100 for the full control effect; nearly all actives have a fitted effect of over 20% in size
[21] = qHTS assay to identify small molecule antagonists of the estrogen receptor alpha (ER-alpha) signaling pathway using the BG1 cell line (AID 743080; calls by dose curve;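 also: BG1 cells stimulated with 17beta-estradiol alongside compound; % is scaled to controls: 0 for no effect and ±100 for the full control effect; nearly all actives have a fitted effect of over 25% in size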); settings: BG1Luc4E2 ERE-luciferase antagonist mode, luminescence; activity change, negative = inhibition: at 70.3 µM (top of the series) unless noted
How it was run: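 Endogenous full-length ER-alpha in BG1-Luc-4E2 cells drives a stably integrated 4×ERE luciferase gene; compounds were tested against 17beta-estradiol over 21.5 h, with luminescence and multiplexed viability fluorescence recorded.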

[22] = molecular target: Peroxisome proliferator-activated receptor gamma (Homo sapiens) (UniProt P37231); assay: qHTS assay to identify small molecule antagonists of the peroxisome proliferator-activated receptor gamma (PPARg) signaling pathway (AID 743191; calls by dose curve; also: % is scaled to controls: 0 for no effect and ±100 for the full control effect; nearly all actives have a fitted effect of over 30% in size); settings: HEK293H PPARg-UAS-bla, beta-lactamase ratio, antagonist, 17 h; ratio activity, negative = inhibition: at 62.6 µM (top of the series) unless noted
How it was run: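 GeneBLAzer PPARg UAS-bla HEK293H cells, 5 h post-plating, exposed to compounds 17 h at 37C. LiveBLAzer B/G FRET substrate added for 1 h at room temperature; beta-lactamase reporter read by fluorescence intensity.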

[23] = qHTS assay to identify small molecule antagonists of the peroxisome proliferator-activated receptor gamma (PPARg) signaling pathway - cell viability counter screen (AID 743194); settings: PPARg-bla HEK293H viability, CellTiter-Glo luminescence, 17 h, co-treated with 50 nM rosiglitazone; activity change, negative = cytotoxicity: at 62.6 µM (top of the series) unless noted; also: potency is read from the fitted curve at half-maximal effect; nearly all actives have a fitted effect of over 55% in size
How it was run: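 Cytotoxicity counter screen in PPARg-bla HEK293H cells, same wells as reporter assay. Compounds plus 50 nM rosiglitazone (final) for 17 h at 37 C, then viability read by CellTiter-Glo luminescence.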

[24] = qHTS assay to identify small molecule agonists of the progesterone receptor (PR) signaling pathway - cell viability counter screen (AID 1346799; calls by dose curve; also: % is scaled to controls: 0 for no effect and ±100 for the full control effect; nearly all actives have a fitted effect of over 45% in size)
How it was run: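 In parallel with the beta-lactamase readout, cytotoxicity toward PR-UAS-bla HEK293T cells was measured by CellTiter-Glo luminescence following 16 hr compound incubation in 2% charcoal-stripped FBS medium.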
Tags tell the direction and shape of the fitted curve or compound fluorescence and quenching.

UniProt P04150, sequence (P04150 whole entry, looked up): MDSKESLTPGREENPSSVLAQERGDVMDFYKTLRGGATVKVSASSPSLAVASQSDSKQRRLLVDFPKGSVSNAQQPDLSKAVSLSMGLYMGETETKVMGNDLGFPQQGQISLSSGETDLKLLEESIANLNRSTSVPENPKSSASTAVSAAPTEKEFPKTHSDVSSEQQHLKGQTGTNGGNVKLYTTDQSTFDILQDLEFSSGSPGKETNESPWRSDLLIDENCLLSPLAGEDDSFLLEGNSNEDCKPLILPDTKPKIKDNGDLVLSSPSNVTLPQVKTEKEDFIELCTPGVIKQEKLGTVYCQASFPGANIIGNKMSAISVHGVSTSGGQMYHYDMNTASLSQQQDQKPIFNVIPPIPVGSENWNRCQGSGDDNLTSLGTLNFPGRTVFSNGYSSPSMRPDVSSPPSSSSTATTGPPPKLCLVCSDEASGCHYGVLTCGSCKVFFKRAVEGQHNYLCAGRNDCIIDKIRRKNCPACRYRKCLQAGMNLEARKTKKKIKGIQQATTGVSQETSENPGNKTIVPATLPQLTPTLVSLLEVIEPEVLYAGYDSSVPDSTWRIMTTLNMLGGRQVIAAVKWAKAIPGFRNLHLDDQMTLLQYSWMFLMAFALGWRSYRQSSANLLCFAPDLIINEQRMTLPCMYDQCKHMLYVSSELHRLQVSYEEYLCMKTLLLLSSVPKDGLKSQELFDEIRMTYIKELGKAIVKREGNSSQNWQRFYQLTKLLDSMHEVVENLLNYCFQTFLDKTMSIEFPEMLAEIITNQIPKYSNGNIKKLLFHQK
UniProt P37231, sequence (P37231 whole entry, looked up): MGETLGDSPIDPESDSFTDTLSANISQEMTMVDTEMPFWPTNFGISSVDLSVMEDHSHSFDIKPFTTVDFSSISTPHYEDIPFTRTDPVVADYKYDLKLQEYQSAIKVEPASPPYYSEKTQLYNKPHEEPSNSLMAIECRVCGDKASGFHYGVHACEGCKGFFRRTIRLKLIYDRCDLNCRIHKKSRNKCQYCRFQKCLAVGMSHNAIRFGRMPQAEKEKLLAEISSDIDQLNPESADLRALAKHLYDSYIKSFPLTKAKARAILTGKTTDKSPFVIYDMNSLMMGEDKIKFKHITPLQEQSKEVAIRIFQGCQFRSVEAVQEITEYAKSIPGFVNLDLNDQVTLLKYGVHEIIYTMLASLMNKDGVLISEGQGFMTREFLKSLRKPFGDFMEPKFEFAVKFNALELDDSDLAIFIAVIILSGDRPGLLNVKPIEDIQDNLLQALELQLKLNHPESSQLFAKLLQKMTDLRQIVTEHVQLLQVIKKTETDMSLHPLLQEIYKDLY
UniProt P11712, sequence (P11712 whole entry, looked up): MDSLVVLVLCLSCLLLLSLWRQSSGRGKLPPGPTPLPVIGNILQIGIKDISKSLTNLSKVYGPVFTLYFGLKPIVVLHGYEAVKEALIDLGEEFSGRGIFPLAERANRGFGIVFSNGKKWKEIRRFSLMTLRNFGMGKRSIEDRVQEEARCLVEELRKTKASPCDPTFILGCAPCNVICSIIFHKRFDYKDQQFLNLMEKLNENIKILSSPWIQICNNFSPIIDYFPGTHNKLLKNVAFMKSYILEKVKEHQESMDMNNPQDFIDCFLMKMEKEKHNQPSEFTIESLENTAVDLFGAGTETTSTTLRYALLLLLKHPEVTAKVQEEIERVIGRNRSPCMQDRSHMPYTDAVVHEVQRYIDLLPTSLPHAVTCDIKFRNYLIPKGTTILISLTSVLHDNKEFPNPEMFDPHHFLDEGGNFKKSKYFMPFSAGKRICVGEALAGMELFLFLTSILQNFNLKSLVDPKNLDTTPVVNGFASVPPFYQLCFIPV
UniProt Q9R1A7, sequence (Q9R1A7 whole entry, looked up): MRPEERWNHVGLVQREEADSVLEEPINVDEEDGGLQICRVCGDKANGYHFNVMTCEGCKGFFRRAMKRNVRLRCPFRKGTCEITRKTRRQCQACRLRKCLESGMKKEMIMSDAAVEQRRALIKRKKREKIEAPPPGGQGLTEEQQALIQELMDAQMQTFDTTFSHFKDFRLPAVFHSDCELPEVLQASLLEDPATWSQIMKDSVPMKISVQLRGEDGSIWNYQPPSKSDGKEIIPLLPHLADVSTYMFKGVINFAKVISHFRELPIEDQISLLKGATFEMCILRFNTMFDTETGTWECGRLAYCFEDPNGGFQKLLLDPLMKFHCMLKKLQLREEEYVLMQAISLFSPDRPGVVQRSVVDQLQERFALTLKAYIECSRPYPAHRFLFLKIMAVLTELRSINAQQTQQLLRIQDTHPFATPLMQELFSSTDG
UniProt P35869, sequence (P35869 whole entry, looked up): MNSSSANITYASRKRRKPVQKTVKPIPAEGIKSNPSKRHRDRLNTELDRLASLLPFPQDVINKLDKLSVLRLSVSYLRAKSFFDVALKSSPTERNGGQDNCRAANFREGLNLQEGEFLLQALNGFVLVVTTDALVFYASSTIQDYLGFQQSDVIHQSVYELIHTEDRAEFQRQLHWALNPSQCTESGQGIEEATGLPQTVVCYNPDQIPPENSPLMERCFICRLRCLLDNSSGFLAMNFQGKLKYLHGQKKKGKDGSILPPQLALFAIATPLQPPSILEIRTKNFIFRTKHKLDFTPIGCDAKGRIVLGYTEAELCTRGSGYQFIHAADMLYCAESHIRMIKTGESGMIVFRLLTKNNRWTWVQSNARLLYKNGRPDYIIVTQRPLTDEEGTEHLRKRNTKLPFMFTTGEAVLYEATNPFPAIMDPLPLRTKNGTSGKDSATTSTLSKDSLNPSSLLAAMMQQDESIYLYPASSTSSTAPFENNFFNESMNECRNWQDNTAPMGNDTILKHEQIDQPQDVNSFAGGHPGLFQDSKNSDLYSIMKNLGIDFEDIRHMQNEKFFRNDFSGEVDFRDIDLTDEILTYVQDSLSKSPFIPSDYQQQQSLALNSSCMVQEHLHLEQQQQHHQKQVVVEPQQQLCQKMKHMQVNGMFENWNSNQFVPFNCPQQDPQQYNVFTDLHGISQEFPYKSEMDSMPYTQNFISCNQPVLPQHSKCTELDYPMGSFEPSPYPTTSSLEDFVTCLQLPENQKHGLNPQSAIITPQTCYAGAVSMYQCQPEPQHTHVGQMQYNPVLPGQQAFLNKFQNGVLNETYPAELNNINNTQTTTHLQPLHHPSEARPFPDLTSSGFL
UniProt P03372, sequence (P03372 whole entry, looked up): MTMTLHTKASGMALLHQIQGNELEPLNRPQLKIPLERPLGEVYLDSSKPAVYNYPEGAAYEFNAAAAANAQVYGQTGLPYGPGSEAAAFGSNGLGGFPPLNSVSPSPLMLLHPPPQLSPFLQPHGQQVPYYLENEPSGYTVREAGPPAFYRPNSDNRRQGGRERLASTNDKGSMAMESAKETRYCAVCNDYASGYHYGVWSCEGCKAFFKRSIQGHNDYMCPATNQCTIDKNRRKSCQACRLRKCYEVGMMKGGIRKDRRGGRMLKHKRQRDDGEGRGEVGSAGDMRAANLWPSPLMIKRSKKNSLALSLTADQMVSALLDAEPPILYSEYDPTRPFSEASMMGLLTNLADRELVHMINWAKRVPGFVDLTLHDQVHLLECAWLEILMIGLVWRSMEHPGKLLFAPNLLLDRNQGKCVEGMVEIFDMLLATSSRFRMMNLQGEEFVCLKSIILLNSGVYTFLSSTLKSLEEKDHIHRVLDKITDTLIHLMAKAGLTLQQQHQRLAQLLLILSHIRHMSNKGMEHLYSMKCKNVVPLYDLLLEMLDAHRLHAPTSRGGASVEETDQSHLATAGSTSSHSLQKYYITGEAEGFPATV
UniProt P05177, sequence (P05177 whole entry, looked up): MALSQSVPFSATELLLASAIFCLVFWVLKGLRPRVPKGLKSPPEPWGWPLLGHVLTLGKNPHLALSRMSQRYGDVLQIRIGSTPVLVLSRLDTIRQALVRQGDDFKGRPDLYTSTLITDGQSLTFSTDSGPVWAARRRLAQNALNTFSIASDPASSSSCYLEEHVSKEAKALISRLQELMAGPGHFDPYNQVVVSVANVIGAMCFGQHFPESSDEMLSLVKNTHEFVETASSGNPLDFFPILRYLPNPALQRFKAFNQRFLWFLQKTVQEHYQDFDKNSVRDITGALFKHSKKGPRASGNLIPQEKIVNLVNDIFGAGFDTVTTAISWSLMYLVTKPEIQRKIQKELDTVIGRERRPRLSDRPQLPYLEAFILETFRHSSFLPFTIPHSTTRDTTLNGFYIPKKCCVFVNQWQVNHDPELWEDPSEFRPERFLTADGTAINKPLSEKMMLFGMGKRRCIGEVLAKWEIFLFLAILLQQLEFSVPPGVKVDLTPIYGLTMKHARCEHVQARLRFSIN
UniProt P08684, sequence (P08684 whole entry, looked up): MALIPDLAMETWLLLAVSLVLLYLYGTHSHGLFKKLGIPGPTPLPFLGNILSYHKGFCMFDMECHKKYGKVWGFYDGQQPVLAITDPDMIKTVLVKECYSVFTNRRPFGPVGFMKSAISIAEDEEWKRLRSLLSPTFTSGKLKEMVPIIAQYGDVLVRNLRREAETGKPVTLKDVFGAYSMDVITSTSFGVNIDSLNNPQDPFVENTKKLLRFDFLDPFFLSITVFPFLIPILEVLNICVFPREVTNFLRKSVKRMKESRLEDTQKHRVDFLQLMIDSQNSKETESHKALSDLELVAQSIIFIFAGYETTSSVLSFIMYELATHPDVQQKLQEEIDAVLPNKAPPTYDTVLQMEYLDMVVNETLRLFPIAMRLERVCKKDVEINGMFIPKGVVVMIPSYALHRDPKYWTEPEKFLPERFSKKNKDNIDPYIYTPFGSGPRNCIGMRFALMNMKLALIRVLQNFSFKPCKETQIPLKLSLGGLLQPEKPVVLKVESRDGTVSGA

CCC(C)c1ccccc1 (configuration not stated)
inconclusive: Potency [5] 39.9 µM [inhibitor, partial curve]
inactive: Potency [1] | Potency [2] | Potency [3] | Potency [4]

CCC(=O)O[C@]1(C(=O)CCl)[C@@H](C)C[C@H]2[C@@H]3C[C@H](F)C4=CC(=O)C=C[C@]4(C)[C@@]3(F)[C@@H](O)C[C@@]21C
inactive: Potency [11] | Potency [13]
inconclusive: Potency [6] 11.9 µM [rising, partial curve, poor fit] | Potency [7] 26.6 µM [cytotoxic, partial curve, poor fit] | Potency [10] 0.0013 µM [activator] | Potency [12] 33.5 µM [inhibitor, single point] | activation [15] -19.4% | Potency [18] 2.51 µM [activator, full curve, poor fit]
active: Potency [8] 11.9 µM | Potency [9] 0.0007 µM | Potency [14] 3.35 µM | Potency [16] 0.447 µM | Potency [17] 1.58 µM

CCc1ccc(CC)cc1
inconclusive: Potency [13] 10.9 µM [rising, full curve, poor fit] | Potency [23] 1.75 µM [rising, partial curve, poor fit]
inactive: Potency [8] | Potency [19] | Potency [20] | Potency [21] | Potency [22] | Potency [24] | Potency [3]

— PubChem BioAssay (Tox21)
